Reference: publication PMC10763179 (Open access Macedonian journal of medical sciences, 2023)

What was measured:
Assay in all cases: NCI60 screen
Format in all cases: cell-based, human
HOP-62 = details: HOP-62, Non-small cell lung cancer; single dose 8.3 μM
BT-549 = details: BT-549, Mammary cancer; single dose 8.3 μM
SF-539 = details: SF-539, tumors of the central nervous system; single dose 8.3 μM
SNB-75 = details: SNB-75, tumors of the central nervous system; single dose 8.3 μM
SN12C = details: Kidney cancer, single dose 8.3 μM
SR = details: Leukemia, single dose 8.3 μM
OVCAR-4 = details: OVCAR-4, Ovarian cancer; single dose 8.3 μM
OVCAR-5 = details: OVCAR-5, Ovarian cancer; single dose 8.3 μM
T-47D = details: Mammary cancer, single dose 8.3 μM
RXF 393 = details: RXF 393, Kidney cancer; single dose 8.3 μM
CAKI-1 = details: CAKI-1, Kidney cancer; single dose 8.3 μM
A498 = details: A498, Kidney cancer; single dose 8.3 μM
PC-3 = details: PC-3, Prostate cancer; single dose 8.3 μM
RPMI-8226 = details: RPMI-8226, Leukemia; single dose 8.3 μM
SK-MEL-5 = details: SK-MEL-5, Melanoma; single dose 8.3 μM
M14 = details: M14, Melanoma; single dose 8.3 μM
MCF7 = details: MCF7, Mammary cancer; single dose 8.3 μM
SW-620 = details: SW-620, Colon cancer; single dose 8.3 μM
SK-OV-3 = details: SK-OV-3, Ovarian cancer; single dose 8.3 μM
MDA-MB-231/ATCC = details: Mammary cancer, single dose 8.3 μM
DU-145 = details: DU-145, Prostate cancer; single dose 8.3 μM
IGROV1 = details: IGROV1, Ovarian cancer; single dose 8.3 μM
SF-295 = details: SF-295, tumors of the central nervous system; single dose 8.3 μM
UO-31 = details: UO-31, Kidney cancer; single dose 8.3 μM
HCC-2998 = details: HCC-2998, Colon cancer; single dose 8.3 μM
HS 578T = details: Mammary cancer, single dose 8.3 μM
ACHN = details: Kidney cancer, single dose 8.3 μM
MALME-3M = details: Melanoma, single dose 8.3 μM
UACC-62 = details: UACC-62, Melanoma; single dose 8.3 μM
NCI/ADR-RES = details: Ovarian cancer, single dose 8.3 μM
MDA-MB-435 = details: MDA-MB-435, Melanoma; single dose 8.3 μM
NCI-H226 = details: NCI-H226, Non-small cell lung cancer; single dose 8.3 μM
UACC-257 = details: UACC-257, Melanoma; single dose 8.3 μM
SK-MEL-28 = details: SK-MEL-28, Melanoma; single dose 8.3 μM
SF-268 = details: SF-268, tumors of the central nervous system; single dose 8.3 μM
U251 = details: U251, tumors of the central nervous system; single dose 8.3 μM
HCT-116 = details: HCT-116, Colon cancer; single dose 8.3 μM
NCI-H23 = details: NCI-H23, Non-small cell lung cancer; single dose 8.3 μM
NCI-H460 = details: NCI-H460, Non-small cell lung cancer; single dose 8.3 μM
TK-10 = details: TK-10, Kidney cancer; single dose 8.3 μM
NCI-H522 = details: NCI-H522, Non-small cell lung cancer; single dose 8.3 μM
HCT-15 = details: HCT-15, Colon cancer; single dose 8.3 μM
MDA-MB-468 = details: MDA-MB-468, Mammary cancer; single dose 8.3 μM
COLO 205 = details: COLO 205, Colon cancer; single dose 8.3 μM
HT29 = details: HT29, Colon cancer; single dose 8.3 μM
KM12 = details: KM12, Colon cancer; single dose 8.3 μM
A549/ATCC = details: Non-small cell lung cancer, single dose 8.3 μM
786–0 = details: 786–0, Kidney cancer; single dose 8.3 μM
SNB-19 = details: SNB-19, tumors of the central nervous system; single dose 8.3 μM
OVCAR-8 = details: OVCAR-8, Ovarian cancer; single dose 8.3 μM
MOLT-4 = details: MOLT-4, Leukemia; single dose 8.3 μM
OVCAR-3 = details: OVCAR-3, Ovarian cancer; single dose 8.3 μM
K-562 = details: K-562, Leukemia; single dose 8.3 μM
SK-MEL-2 = details: SK-MEL-2, Melanoma; single dose 8.3 μM

Question: For `C=C1C(=O)O[C@@H]2[C@H]3C(C)=CC[C@@]34O[C@@]4(C)CC[C@@H]12` [Arglabin 6, arglabin], which “Growth of tumor cells, %” value (HOP-62) is on record?
Answer: 67.33%

Question: What about the “Growth of tumor cells, %” value (BT-549) of the same molecule?
Answer: 27.88%

Question: And the “Growth of tumor cells, %” value (SF-539)?
Answer: 54.28%

Question: And the “Growth of tumor cells, %” value (SNB-75)?
Answer: 62.66%

Question: What about the “Growth of tumor cells, %” value (SN12C) of the same molecule?
Answer: 64.30%

Question: And the “Growth of tumor cells, %” value (SR)?
Answer: 2.25%

Question: And the “Growth of tumor cells, %” value (OVCAR-4)?
Answer: 86.04%

Question: What about the “Growth of tumor cells, %” value (OVCAR-5) of the same molecule?
Answer: 82.60%

Question: What about the “Growth of tumor cells, %” value (T-47D) of the same molecule?
Answer: 26.55%

Question: What about the “Growth of tumor cells, %” value (RXF 393) of the same molecule?
Answer: 32.69%

Question: What about the “Growth of tumor cells, %” value (CAKI-1) of the same molecule?
Answer: 26.61%

Question: What about the “Growth of tumor cells, %” value (A498) of the same molecule?
Answer: 71.05%

Question: What about the “Growth of tumor cells, %” value (PC-3) of the same molecule?
Answer: 56.38%

Question: And the “Growth of tumor cells, %” value (RPMI-8226)?
Answer: −5.73%

Question: What about the “Growth of tumor cells, %” value (SK-MEL-5) of the same molecule?
Answer: 76.31%

Question: And the “Growth of tumor cells, %” value (M14)?
Answer: 67.86%

Question: And the “Growth of tumor cells, %” value (MCF7)?
Answer: 28.88%

Question: What about the “Growth of tumor cells, %” value (SW-620) of the same molecule?
Answer: 29.05%

Question: What about the “Growth of tumor cells, %” value (SK-OV-3) of the same molecule?
Answer: 101.08%

Question: And the “Growth of tumor cells, %” value (MDA-MB-231/ATCC)?
Answer: 58.15%

Question: What about the “Growth of tumor cells, %” value (DU-145) of the same molecule?
Answer: 11.52%

Question: What about the “Growth of tumor cells, %” value (IGROV1) of the same molecule?
Answer: 98.42%

Question: What about the “Growth of tumor cells, %” value (SF-295) of the same molecule?
Answer: 89.81%

Question: What about the “Growth of tumor cells, %” value (UO-31) of the same molecule?
Answer: 81.56%

Question: What about the “Growth of tumor cells, %” value (HCC-2998) of the same molecule?
Answer: 102.64%

Question: And the “Growth of tumor cells, %” value (HS 578T)?
Answer: 74.60%

Question: And the “Growth of tumor cells, %” value (ACHN)?
Answer: 53.47%

Question: What about the “Growth of tumor cells, %” value (MALME-3M) of the same molecule?
Answer: 67.65%

Question: And the “Growth of tumor cells, %” value (UACC-62)?
Answer: 25.79%

Question: And the “Growth of tumor cells, %” value (NCI/ADR-RES)?
Answer: 77.13%

Question: And the “Growth of tumor cells, %” value (MDA-MB-435)?
Answer: 34.20%

Question: What about the “Growth of tumor cells, %” value (NCI-H226) of the same molecule?
Answer: 103.37%

Question: And the “Growth of tumor cells, %” value (UACC-257)?
Answer: 44.07%

Question: And the “Growth of tumor cells, %” value (SK-MEL-28)?
Answer: 88.53%

Question: What about the “Growth of tumor cells, %” value (SF-268) of the same molecule?
Answer: 78.99%

Question: And the “Growth of tumor cells, %” value (U251)?
Answer: 81.31%

Question: What about the “Growth of tumor cells, %” value (HCT-116) of the same molecule?
Answer: 17.39%

Question: And the “Growth of tumor cells, %” value (NCI-H23)?
Answer: 62.36%

Question: What about the “Growth of tumor cells, %” value (NCI-H460) of the same molecule?
Answer: 80.10%

Question: What about the “Growth of tumor cells, %” value (TK-10) of the same molecule?
Answer: 5.66%

Question: What about the “Growth of tumor cells, %” value (NCI-H522) of the same molecule?
Answer: −68.86%

Question: What about the “Growth of tumor cells, %” value (HCT-15) of the same molecule?
Answer: 24.60%

Question: And the “Growth of tumor cells, %” value (MDA-MB-468)?
Answer: −44.01%

Question: And the “Growth of tumor cells, %” value (COLO 205)?
Answer: 42.37%

Question: What about the “Growth of tumor cells, %” value (HT29) of the same molecule?
Answer: 40.70%

Question: What about the “Growth of tumor cells, %” value (KM12) of the same molecule?
Answer: 95.54%

Question: And the “Growth of tumor cells, %” value (A549/ATCC)?
Answer: 83.94%

Question: And the “Growth of tumor cells, %” value (786–0)?
Answer: 73.74%

Question: What about the “Growth of tumor cells, %” value (SNB-19) of the same molecule?
Answer: 101.01%

Question: And the “Growth of tumor cells, %” value (OVCAR-8)?
Answer: 72.01%

Question: What about the “Growth of tumor cells, %” value (MOLT-4) of the same molecule?
Answer: 59.14%

Question: And the “Growth of tumor cells, %” value (OVCAR-3)?
Answer: 30.37%

Question: And the “Growth of tumor cells, %” value (K-562)?
Answer: 26.23%

Question: What about the “Growth of tumor cells, %” value (SK-MEL-2) of the same molecule?
Answer: 84.20%
